From publication PMC10668032
Some of the results follow. At the low end of the ranking the order means little.

These sequences were tested against SIX1 homeodomain (reference allele) (UniProt Q15475) (assay: universal protein binding microarray). Details: Universal all-10-mer PBM (8x60K, AMADID 030236), 300 nM GST-tagged protein, Alexa Fluor 488 anti-GST; buffer, salt, pH and temperature not stated; high values mean tight binding; most listed sequences are background and not binding sites; double strand, one strand shown.

Sequence | binding signal [E-score]
GGGACCAC | -0.00475
CCCCGTGA | 0.0685
ATGTGCTG | -0.174
AGTTGTTG | -0.318
CCCACACA | -0.00729
TAGGCGAA | 0.164
AATGGAGA | 0.05
CAAAGATC | 0.209
ACGTATGA | 0.097
TAAACCCA | 0.161
CACCCTTC | 0.242
ACCTCGCG | 0.0472
ATAAGCAA | -0.0383
GTCCTTCA | -0.0662
CTAAGGAA | -0.285
ACTGCCTA | -0.138
TCCTGCCA | -0.156
CGCGGGCC | -0.272
CTGATTCA | -0.0782
AATCCTAT | 0.176
AGGCAGAA | -0.149
ACCGTGCT | -0.0817
GCGCGGCC | -0.319
GAGGTGTA | 0.233
GGTGTGAC | 0.134

Sequence | binding signal [E-score]
ACAGAGCC | -0.234
GAACCACA | -0.122
CACCGCAA | 0.0376
CCATCTGA | 0.259
CCGCAAGC | -0.283
AGGCAACG | -0.0413
GTTTTCCA | -0.17
GAACATCA | -0.319
CACTTCAC | -0.102
CATGGCTA | 0.0932
GGATAAAA | 0.166
CGATCCGA | 0.396
GTCGAGGA | -0.0201
ATGAGGTC | -0.101
CATCCCAC | 0.0433
CGGGGATA | 0.413
GGCCCAAA | -0.176
CCTCACTC | -0.053
CACAGTAC | -0.0473
AGTTAGAG | -0.0581
AAGCCCGC | -0.0111
GGGTCCAC | 0.0781
CCATCCGA | 0.218
ACCGACAC | 0.286
CATGGATA | 0.3

Sequence | binding signal [E-score]
GGTCCAAC | -0.0688
AGGACACC | 0.366
TCCAACGA | -0.123
CAGAACTA | -0.0307
ACCCCTTC | 0.131
GGTCCCAC | -0.126
CTGCCCTA | 0.02
CCCCAAGC | 0.14
AAGGGCGA | -0.243
CAATCTCA | 0.0472
CCTCTCAA | 0.0299
AACTACAA | -0.0356
CCCCTACA | 0.00857
TGGGTCAA | -0.0742
AAAAGACA | -0.0208
GACGACTA | -0.169
GTGAGAAA | -0.17
AACAAGAA | -0.0806
ACATAGAC | -0.034
CTCGGCAC | -0.0169
GCGTCCCA | -0.29
CCTCCTAC | -0.132
CACCGAAC | -0.00985
AGGGTATC | 0.491
CGTGACGC | -0.247

Sequence | binding signal [E-score]
ATGAGCGG | -0.187
CATGGGGG | 0.0131
GGCCTAAC | -0.182
AAGGCTCA | 0.117
CACCAGAG | -0.0793
CTATCACC | 0.35
GAAGAAGC | -0.258
ACTGTCGA | -0.0755
CCTATACC | 0.311
ACAATGCT | -0.206
ATTTAGGC | -0.277
GCACTCGC | -0.163
AGTTGAAC | -0.0449
ACGGGTCT | -0.056
AACCTAGA | 0.0334
CGAAATGA | 0.054
CCTTAATC | 0.142
CTAGAGAA | 0.13
TGCTGCCA | -0.157
GGGATCTA | 0.272
CGTCGCAC | -0.108
AATGTACA | -0.0173
ATACGCAA | 0.204
CCTGTCCC | -0.119
AAGCGAAG | -0.13

Sequence | binding signal [E-score]
GCGTGACA | -0.0699
CTTCGACC | -0.0657
CATCTGGC | 0.0814
ACACTCAG | 0.0704
AATGAGTG | -0.108
AAAATGAT | 0.187
GACACCAA | 0.364
ATCATGAG | 0.23
GGCTCGAA | 0.0525
CAATGTCG | -0.162
CCTTCGCC | -0.0012
ACTTGAGC | -0.187
CCTCGTAG | -0.0794
CACGGTTC | -0.257
GCCCGTTA | -0.167
CAATAGTC | -0.222
ATGGTGGA | 0.0594
CTCCGCGC | -0.0249
AGAGGCCC | -0.201
GGTCGAAC | 0.00664
CCTTGGTA | 0.0895
CAACACGA | 0.015
TGGCCGAA | -0.191
AGTTCGGC | -0.246
CCCATCTC | 0.292

Sequence | binding signal [E-score]
CCAAGGCG | -0.146
CCGGCGGA | 0.24
TCAACAAA | 0.045
AAGTGTAT | 0.114
CTAGCGAG | 0.0372
CCTTTAGA | -0.042
CGGTGAGC | -0.0912
ACCGTGAG | 0.0515
CACCTCAC | -0.0105
AGTTTGGG | -0.0848
CGCCGACA | 0.0717
TCCGGACA | 0.105
GGTCCCGA | -0.287
AAAAAAGA | -0.165
CCCGGAAC | -0.118
ATTTGTGG | -0.15
GCTACCCA | -0.118
AACATCCG | -0.0841
ATACGTAA | 0.132
AACACTAT | 0.0446
ACTCGACA | -0.128
CCAACTAA | -0.0194
CACGTGCG | -0.306
AATCATCA | -0.154
GTATTTCA | -0.0287

Sequence | binding signal [E-score]
CTCCCGCA | 0.0286
CCCTCTTA | -0.0773
GTACCGTA | 0.0551
CAAGCTGG | -0.042
CGTCCCAC | -0.188
AAATACGC | 0.0183
GTAGATGA | 0.123
ATGTACTG | -0.105
TGCGGAAA | -0.202
GCTACTCC | -0.0984
AGAACTAA | -0.171
CTCGTCTA | -0.18
AAGATCGT | 0.265
CATACATG | 0.154
GTAGGAAC | -0.0257
GTTCAGTA | -0.0555
ACCGCTCT | -0.13
CGATTCAA | -0.172
ACTCCAGG | 0.00525
GACTCGCC | -0.206
ACGTATTC | 0.234
GGAGTACC | 0.0311
CGGTTGCA | -0.216
ATCTCCCA | 0.238
TAGGGACA | 0.0629

Sequence | binding signal [E-score]
ATGAGCAC | -0.0894
GCTTCCAA | -0.272
AGTTTCTG | -0.125
CATATATG | 0.23
ACCTGGCA | -0.0544
AGCTCAAA | 0.0473
CCCTTTTC | -0.0589
CCGCCGCA | -0.107
GAGTGAAA | -0.0625
ACTGTTGA | -0.08
GCCCAGAC | -0.0733
CCGGCCCC | -0.0562
AAGTCATG | -0.189
CGATCTCA | 0.257
CTGTACAA | -0.16
ATGCCGCC | -0.101
CTGAGGTC | -0.27
TAGCGAAA | -0.125
ATTACGCC | -0.062
AGACGCCA | -0.111
GGCGGTTA | 0.00737
CTTGCATA | -0.119
AATAACCT | -0.18
ATGTACCC | 0.0151
TGCCCGAA | -0.217

Sequence | binding signal [E-score]
GTAGCCAA | -0.172
CAAGATTC | 0.00957
CATCATAA | -0.0455
TGAATTCA | -0.0917
CATACGGG | -0.00773
GTAACGAC | -0.108
GCGAGATA | 0.335
TCCATGCA | -0.0342
AACCCGTT | -0.158
CGGCTCCC | -0.0545
CTACCCGA | 0.0676
AACGGACA | -0.042
CATGTCAA | -0.287
AATCAAAT | -0.189
AAAATATC | 0.154
CCGAATAC | 0.248
CGACGTGC | -0.118
AACATTCA | -0.169
CGACCAAA | -0.0853
CATTCTAC | -0.138
GACAACAC | 0.0383
ATTCGGTC | -0.184
AATCACCC | 0.0903
CGTGACTA | -0.0645
AACCGATT | -0.0518

Sequence | binding signal [E-score]
CAGGGCGA | 0.216
CTGGGCCA | -0.187
CCATGAGC | -0.00082
CACTTTTC | -0.147
GTGGGCTA | -0.143
GCACCCGA | 0.146
GTGAACTA | -0.0175
GCTTAAGC | -0.206
GGCGGCTA | 0.101
ACTGGTAT | 0.386
CCGGTTTA | -0.0166
ATATGAAC | 0.0317
AGTGTAAC | -0.0601
CTCATTGA | -0.124
ACACTTGC | -0.172
CAGAGTAG | -0.0349
GTTACCGA | -0.212
GAACGCCC | -0.261
AAGACATG | -0.116
AGAATGAT | 0.216
CTATTGTA | 0.124
ATAAGCTC | -0.00516
ATAGTACA | 0.19
AGACCTAT | 0.17
TACGCTAA | 0.0362

Sequence | binding signal [E-score]
GGCTTATA | 0.121
CCTACGAA | -0.055
ACGACCTA | -0.119
CGGCGTAC | -0.153
GCAAATGA | -0.0339
CGTGACCC | 0.0509
AAGCTGCA | -0.122
AATACCGG | 0.273
ATAGTCAC | 0.0709
TCCCACAA | 0.0221
CGGGACTC | -0.261
ACGCAGGA | -0.0076
CCTGACAC | 0.352
GACGGCGC | -0.283
AATTTCCC | -0.253
CATGAAAG | 0.157
ATTCGGCG | -0.06
CGTATACA | 0.279
TACAATCA | -0.0724
CGATAGAG | -0.0205
CGAAGAGC | -0.158
CGAACAAG | -0.193
AATTTCGG | -0.156
ACGTCATA | -0.0417
GAAGTATC | 0.407

Sequence | binding signal [E-score]
CGTGCAGC | -0.209
GCGGTCAA | -0.0653
CACCTATG | 0.123
AATTCACC | -0.183
AGTAGCTG | -0.0543
GAATGCAC | -0.0186
AGAGCGAT | 0.159
CGGCCACA | -0.233
GAAGCCGA | 0.0635
AGCAAGGA | 0.0356
GTGTAGTA | 0.185
AAGGTATT | 0.248
TATCATAA | 0.381
AAAGCATC | -0.066
AAACGCCA | -0.19
AATCCCAT | 0.19
CAGTGGCG | -0.033
CGGTAAGA | -0.0374
CTTTGCAA | -0.113
ATAACGGC | 0.0628
CACCGAGC | 0.115
AGATAGCA | 0.119
GCGAACCC | 0.135
ATGGAGGC | -0.0848
ATCTCGGC | 0.164

Sequence | binding signal [E-score]
TCGGGAAA | 0.0547
CGGCAATA | -0.0449
AAATTATA | 0.109
CATAAGGA | -0.0528
GGATCCCA | 0.37
TGTGCGAA | -0.224
ATATCAGC | 0.404
CGCTAAGA | -0.0957
AAAGTAAC | -0.294
ATATCATG | 0.458
AAATACAT | 0.0567
CACGTGCC | -0.0148
AGCCCGGA | 0.0121
AAGGATTA | 0.159
ATATCATC | 0.46
AGGCATAC | -0.0178
ACGCTGAG | -0.114
TACACCAA | 0.31
CCGAGAGC | 0.0387
GGGGGACA | -0.00818
CTGCCGTA | -0.136
AACAGGCA | -0.224
GTGGTATA | 0.3
TAATGCTA | -0.118
GAGTCTGC | -0.239

Sequence | binding signal [E-score]
CAGTCGTC | -0.222
TTCGAAAA | -0.173
AACTTGGG | -0.243
CTGTCTGC | -0.0986
AGAATTCT | 0.00881
CGTATTCC | 0.15
CTGAGATA | 0.248
AGCTAGGA | 0.0271
GAGGACGA | -0.0345
CATAGTGC | 0.0188
CCCATAGC | -0.142
GTACGAGA | -0.00962
CCCGTCAG | -0.191
ACAGTTAC | -0.243
ATGTTCGC | -0.207
CGATGCAG | 0.21
CCGTCAAA | -0.286
CAGCCGAG | -0.122
AACCCTAA | -0.0264
